For the test, the target named is human insulin receptor isoform B (human). The test can be described thus: cell-based or functional assay.

B1: Glu(A14)His(B16)Ala(B25)Des(B30)-Insulin (ligand)
chain 1: not shown
chain 2: FVNQHLCGSHLVEALHLVCGERGFAYTPK
B1 displayed an Autophosphorylation activity (relative to human insulin) of 0.11.

Source of the values: patent publication US20230346949A1, “A METHOD OF FORMING A CONJUGATE OF A SULFONAMIDE AND A POLYPEPTIDE” (SANOFI, priority 2019, published 2023).
